The target in experiment [1] is 重组人NT-proBNP (recombinant human N-terminal pro-brain natriuretic peptide, bought from 重庆探生科技有限公司) (human) (UniProt P16860). The experiment is described as follows: sandwich ELISA, m1 coated at 5 ug/mL, NT-proBNP 35 ng/L, detection HRP-6C7.
For experiment [2] the target is unchanged. Description: sandwich ELISA, m1 coated at 5 ug/mL, NT-proBNP 17.5 ng/L, detection HRP-6C7. A general note: In an ELISA, binding on a coated surface is turned into a signal by an enzyme label.
Experiment [3] shares this target. The experiment is described as follows: sandwich ELISA, m1 coated at 5 ug/mL, NT-proBNP 8.75 ng/L, detection HRP-6C7.
The target is the same in experiment [4]. Description: sandwich ELISA, m1 coated at 5 ug/mL, NT-proBNP 4.375 ng/L, detection HRP-6C7.
Experiment [5] has the same target. The experiment is described as follows: sandwich ELISA, m1 coated at 5 ug/mL, NT-proBNP 2.1875 ng/L, detection HRP-6C7.
Experiment [6] shares this target. The experiment is described as follows: sandwich ELISA, m1 coated at 5 ug/mL, NT-proBNP 1.09375 ng/L, detection HRP-6C7.
Experiment [7] shares this target. The experiment is described as follows: sandwich ELISA, m1 coated at 5 ug/mL, NT-proBNP 0.273438 ng/L, detection HRP-6C7.
The target is the same in experiment [8]. The experiment is described as follows: sandwich ELISA, m1 coated at 5 ug/mL, NT-proBNP 0.546875 ng/L, detection HRP-6C7.

Chain of UniProt P16860 (P16860 27-102): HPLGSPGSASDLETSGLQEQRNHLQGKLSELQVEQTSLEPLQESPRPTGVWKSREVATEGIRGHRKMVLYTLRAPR

B1: 人NT-proBNP特异性重组羊单克隆抗体 (sheep scFv fused to human IgG Fc, expressed from pcDNA3.1-NT in 293F cells) (Fc fusion)
chain: MALSQVRLQESGPSLVKPSQTLSLTCTVSGPSLTDYDVDWVRQAPGKALEWLGFINQGAPTGYDPALKSRLSITRDTSKSQVSLSLSSMTAEDTAVYYCARGAILGWGRGLLVTVSSQGSTSGSGKPGSGEGSTKGGQAVLTQPASVSGSPGQTVTISCTGTSGDIAGYNLVGWYQQLPNSAPKTLIYDVSTRRSGIPARFSGSKSGNTATLTISGLQAEDEADYYCSTSISANSVGFGSGTRLTVLGQPKSAPS[letters of human IgG4 Fc not shown]
Regarding B1, the A450 (absorbance at 450 nm) came out at 2.84 in experiment [1]; 1.64 in experiment [2]; 1.06 in experiment [3]; 0.494 in experiment [4]; 0.242 in experiment [5]; 0.162 in experiment [6]. Also, the A450 (absorbance at 450 nm) in experiment [7] is 0.09; in experiment [8] it was 0.103.

The record behind these values is patent CN109678958A.
